Measured values from the RNAGym collection of RNA variant scans (doi:10.1073/pnas.2313332121).
This sample is rich in variants without activity.

B1: TPR 5TU (parent)
chain: GGAUCUUCUCGAUCUAACAAAAAAGACAAAUCUGCCACAAAGCUUGAGAGCAUCUUCGGAUGCAGAGGCGGCAGCCUUCGGUGGCGCGAUAGCGCCAACGUUCUCAACUAUGACACGCAAAACGCGUGCUCCGUUGAAUGGAGUUUAUCAUG

Variants of: B1
Test: polymerase ribozyme fitness, log enrichment relative to wild type (log ratio); higher = more active; in vitro selection for triplet polymerase activity
Outline: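 Mutant libraries of both subunits of a heterodimeric triplet polymerase ribozyme were PCR-built, transcribed, and selected once in triplicate, with frozen incubation at −7 °C and capture of gel-excised extended constructs on streptavidin beads before RT-PCR. Illumina sequencing of input and output libraries was filtered to genotypes with ≥10 input reads and ≥1 read per output. Fitness is the logarithm of genotype enrichment over wild-type enrichment, using inverse-variance-weighted replicate averages. The logarithm is base 2.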

Row | Variant | polymerase ribozyme fitness (log ratio)
1 | A12C U45A C76A A91U U102C C131G A137G | ≤ -4.2
2 | A12C U45A G83C U139C A150C G152U | ≤ -4.2
3 | A12C U53C C57A G83C G84U G100U A120U | ≤ -4.2
4 | A12C U53C C79A C105A C116U C125U A137U | ≤ -4.2
5 | A12C U55G A97G C105U | -3.12
6 | A12C U90G G92C | ≤ -4.2
7 | A12G A16U G50C G94A A119U G140U | ≤ -4.2
8 | A12G A17G C93U A120G | -0.897
9 | A12G A19C A20G A22C A28G A30G C57A G59A G84A U101G A115U G136U | ≤ -4.2
10 | A12G A19C G86C U101G A113G G124C U135A G141A | ≤ -4.2
11 | A12G A19U U45A U53A G88U | ≤ -4.2
12 | A12G A20G C76G G81A G84U C118A | ≤ -4.2
13 | A12G A22C U53A G88C C108A A110U | ≤ -4.2
14 | A12G A22G A39U A47U G92U A97G U101G | ≤ -4.2
15 | A12G A22G A52C G74U G81C U82G C95G | ≤ -4.2
16 | A12G A23C A47C A60G C93U | ≤ -4.2
17 | A12G A23U C35U C76A C93U A97U C116A | -3.12
18 | A12G A24U A49U C51A A66G C95U C105A | ≤ -4.2
19 | A12G A24U C87U | 0.648
20 | A12G A24U G50A C69U C79U C93G G100C C103G G141A | ≤ -4.2
21 | A12G A26G C57U C87A A91U A122C C125G | ≤ -4.2

Row | Variant | polymerase ribozyme fitness (log ratio)
22 | A12G A26G G94C C95A A137G | -4
23 | A12G A28C C63U G68A C85A C105A C114U C123G | ≤ -4.2
24 | A12G A29C C54U G59A C75A G83U C85G U90C A91U A142C | ≤ -4.2
25 | A12G A29G C54A G70U G71A C85A A113C | ≤ -4.2
26 | A12G A29U A49C A110U | ≤ -4.2
27 | A12G A29U C85U A115C G117U U134G | ≤ -4.2
28 | A12G A29U U44C G50C A91C C93G G94C C116U U144A | ≤ -4.2
29 | A12G A30C U31C G59A C69A U139G U144G | ≤ -4.2
30 | A12G A30G | -2.97
31 | A12G A37G C87U U109G U144C U145C C149G | ≤ -4.2
32 | A12G A41C A47C C72A C85U G133A A150U | ≤ -4.2
33 | A12G A41G C79G C85G C103U A120C U134C A150G | ≤ -4.2
34 | A12G A41G C85G A106G | -1.5
35 | A12G A41U C54A G88U C96U U134C | ≤ -4.2
36 | A12G A49G U56A U61A G88A | ≤ -4.2
37 | A12G A60G C93U | -0.294
38 | A12G A91G A106G | -2.04
39 | A12G C14G A17G C75U A91G C105U A106G A121U A137U | ≤ -4.2
40 | A12G C18G A29G U44A C85U A121G | ≤ -4.2
41 | A12G C35G A47C A89U C123A U130G G143A | ≤ -4.2
42 | A12G C35G C63U C85A | ≤ -4.2

Row | Variant | polymerase ribozyme fitness (log ratio)
43 | A12G C36U G94U A107C | ≤ -4.2
44 | A12G C38G C85A U151C G152U | ≤ -4.2
45 | A12G C38U C76A G84A G94A U135G G141A U144C | ≤ -4.2
46 | A12G C51G A52C C63G | ≤ -4.2
47 | A12G C51U G74C A115G C123A G143U | ≤ -4.2
48 | A12G C54A G86C C87U G126A | ≤ -4.2
49 | A12G C57G G59A C96U U127G | -3.86
50 | A12G C57G G83U A115G | -2.09
51 | A12G C57U C87U C103G | -2.19
52 | A12G C76G U134A U146G | ≤ -4.2
53 | A12G C85A C118A G136U | -3.83
54 | A12G C85U C118G C125A | -0.473
55 | A12G C87G G88U C96U C105A C108G C116U | ≤ -4.2
56 | A12G G25A A40C U53A C85G C95A A97U G140U | ≤ -4.2
57 | A12G G25U G50U C76G C85A U127A | ≤ -4.2
58 | A12G G42A U77A | ≤ -4.2
59 | A12G G48C U56A G70A G83U | ≤ -4.2
60 | A12G G50C U61G G88U C96U U134C | ≤ -4.2
61 | A12G G50U C95G C99A C118A | ≤ -4.2
62 | A12G G68U G80U G100A U135G U139A U144A | ≤ -4.2
63 | A12G G74U G83A C85G A138G | ≤ -4.2

Row | Variant | polymerase ribozyme fitness (log ratio)
64 | A12G U13C G46C C51A U56A U82C G86A C87U A97C G133C G143C U146C | ≤ -4.2
65 | A12G U13G C38A A41U C95A U102C A137G | ≤ -4.2
66 | A12G U15C A37G U44A U56A C69U C87U | ≤ -4.2
67 | A12G U31A A60C G68U | ≤ -4.2
68 | A12G U31C G133U G143A | ≤ -4.2
69 | A12G U31G C118A A120G G141C | -2.6
70 | A12G U33G A40G A52U U53G G86A U134A | ≤ -4.2
71 | A12G U45A A52U C93A C118A A120U U145G | ≤ -4.2
72 | A12G U45G A49U A60G U61G A107U U127G | ≤ -4.2
73 | A12G U45G C69G A91C A115G G133A G143U | ≤ -4.2
74 | A12G U53A U56G C93U U102G | ≤ -4.2
75 | A12G U53C G68A C85A U101C | ≤ -4.2
76 | A12G U55A G62A C105U G133A U139C | ≤ -4.2
77 | A12G U56A A60U G65U A91U C96G A120U | ≤ -4.2
78 | A12G U56G C85G | -2.2
79 | A12G U151G | -4.06
80 | A12U A16C C57G G81A U104G A115G | ≤ -4.2
81 | A12U A17C G68A C76G U82G U146C | ≤ -4.2
82 | A12U A17G C35A U44A A47C A52U C95U G152U | ≤ -4.2
83 | A12U A17G C87G U135C | ≤ -4.2
84 | A12U A17U A21G G42A G46C G88A C95U | ≤ -4.2
